Laboratory results as given in PubChem BioAssay (NCATS).
Where “and” joins values, the source holds several entries; their conditions need not be identical. Identical values can stand only once. The shares of active, inactive and inconclusive entries below differ from those in the screen. A potency beside an inconclusive call is a rough fit, not a confirmed value. Calls of active or inactive are those of the source. Calls follow the shape of the dose curve; as a rule, active = well fitted cell-killing curve with a large enough effect; inconclusive = small, poorly fitted or top-dose-only effect, or effect the other way; inactive = no such curve, though single readings can be large or run the other way.
Potency is read from the fitted curve at half-maximal effect; tags tell the direction and shape of the fitted curve.

Assay: Viability qHTS for spleen associated tyrosine kinase inhibitor (SYKi) naive MV4-11 cells (AID 1963823); also: nearly all actives have a fitted effect of over 40% in size
Details: MV4-11 AML viability, CellTiter-Glo luminescence, 72 h; viability (% of control): at 45 µM (top of the series)
Procedure, shortened: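 Read-out: CellTiter-Glo luminescence. Exposure: 72 hr, 37 C, 5% CO2, 95% humidity. Cells: MV4-11 without SYK inhibitor history, 500/well, qHTS format.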
With `C[C@@H]1O[C@@H](OC[C@H]2O[C@@H](Oc3c(-c4ccc(O)c(O)c4)oc4cc(O)cc(O)c4c3=O)[C@H](O)[C@@H](O)[C@@H]2O)[C@H](O)[C@H](O)[C@H]1O` the “viability (% of control)” value was inactive: 71.2%. For `CO[C@]1(NC(=O)CSC(F)F)C(=O)N2C(C(=O)O)=C(CSc3nnnn3CCO)CO[C@H]21`, the “viability (% of control)” value was inactive: 65.4%. In the case of `Nc1ncnc2c1ncn2[C@@H]1O[C@H](CO)C[C@H]1O`, the Potency is reported as inconclusive: 18.4 µM [cytotoxic, partial curve] and inactive. With `CCC(C)C(=O)OC1CC(C)C=C2C=CC(C)C(CCC(O)CC(O)CC(=O)O)C21` (centres undefined) the Potency was inconclusive: 8.93 µM [cytotoxic, single point]. For `O=C(/C=C/n1cnc(-c2cc(C(F)(F)F)cc(C(F)(F)F)c2)n1)NNc1cnccn1`, the Potency was inconclusive: 1.3 µM [cytotoxic, full curve, poor fit]. In the case of `COc1ccc(-n2c(=O)[nH]c3cc(C(=O)NCc4ccc(Cl)cc4)sc3c2=O)nc1OC`, the Potency is reported as inconclusive: 20.6 µM [cytotoxic, single point]. For `C[C@@H]1O[C@@H](O[C@H]2[C@H](OC(=O)[C@]34CCC(C)(C)C[C@H]3C3=CCC5[C@@]6(C)C[C@H](O)[C@H](O[C@@H]7O[C@H](C(=O)O)[C@@H](O)[C@H](O)[C@H]7O)[C@@](C)(CO)C6[C@H](O)C[C@@]5(C)[C@]3(C)C[C@H]4O)O[C@@H](CO)[C@@H]2O)[C@H](O)[C@H](O)[C@H]1O[C@@H]1OC[C@@H](O)[C@H](O[C@H]2OC[C@](O)(CO)[C@H]2O)[C@H]1O` (some centres undefined), the Potency was inconclusive: 2.75 µM [cytotoxic, single point]. With `C=C(C)[C@@H]1CC[C@]2(C)CC[C@]3(C)[C@H](CC[C@@H]4[C@@]5(C)CC[C@@H](O)C(C)(C)[C@@H]5CC[C@]43C)[C@@H]12` the “viability (% of control)” value was inactive: 8.49% [at 17.3 µM]. In the case of `CN1CCN(C(c2ccccc2)c2ccccc2)CC1`, the Potency is reported as “inactive and inconclusive: 16.4 µM [cytotoxic, single point]”. For `COc1cc([C@@H](O[C@@H]2O[C@H](CO)[C@@H](O)[C@H](O)[C@H]2O)[C@@H]2CO[C@H](c3ccc(O)c(OC)c3)[C@H]2CO)ccc1O`, the “viability (% of control)” value was inactive: 75.3% [at 17.3 µM]. For `CCC1C(=O)OC23C=C[C@@H]4C(C(=O)O)=CO[C@H](O[C@@H]12)[C@@H]43` (some centres undefined), the Potency was inconclusive: 23.1 µM [cytotoxic, partial curve]. With `O=C(O)c1cc(I)ccc1NC(=O)[C@H](Cc1ccccc1)NCc1ccccc1` the Potency was inconclusive: 23.1 µM [cytotoxic, single point]. For `CCCCC1C(=O)N(c2ccccc2)N(c2ccc(O)cc2)C1=O` (centres undefined), the Potency was inconclusive: 8.41 µM [cytotoxic, partial curve]. For `CC(=O)C1=C(C)N(c2cccc(C(F)(F)F)c2)C(=O)N[C@H]1c1ccc(C#N)nc1`, the viability (% of control) was inactive: 83.3% [at 9.25 µM]. With `CCC(CC)n1ccc2c(C(=O)NCc3c(C)cc(C)[nH]c3=O)cc(C#N)cc21` the “viability (% of control)” value was inactive: 88.2%. For `COc1ccc(CCO[C@@H]2O[C@H](CO[C@H]3OC[C@](O)(CO)[C@H]3O)[C@@H](OC(=O)/C=C/c3ccc(O)c(O)c3)[C@H](O[C@@H]3O[C@@H](C)[C@H](O)[C@@H](O)[C@H]3O)[C@H]2O)cc1OC`, the Potency was inconclusive: 4.32 µM [cytotoxic, partial curve]. In the case of `COc1cc(-c2cccc(O)c2)cc2c1OCO2`, the “viability (% of control)” value is reported as inactive: 66.2%. For `O=C(/C=C/N1C[C@@H]2C[C@@H]1CN2c1ccccn1)c1ccccc1O`, the Potency was inconclusive: 11.6 µM [cytotoxic, partial curve]. With `CCO/C([O-])=N/c1c[n+](N2CCOCC2)no1` the Potency was inconclusive: 0.335 µM [rising, full curve]. For `CCN(CC)CCNC(=O)c1c(C)[nH]c(/C=C2\C(=O)Nc3ccc(Cl)cc32)c1C`, the Potency was inconclusive: 0.0092 µM [cytotoxic, full curve]. With `CCCCCCCCCCCCSCCOCCO` the “viability (% of control)” value was inactive: 103%. In the case of `C=CS(=O)(=O)NC1CCN(C(=O)CNc2cc(I)c(Cl)cc2OC)CC1`, the Potency is reported as active: 3.26 µM. In the case of `O=C(NCCCCCCCCNC(=O)C(Cl)Cl)C(Cl)Cl`, the Potency is reported as inconclusive: 9.2 µM [cytotoxic, partial curve]. In the case of `C[C@]1(OC(=O)/C=C/c2ccccc2)C[C@H](O)[C@]2(O)C=CO[C@@H](O[C@@H]3O[C@H](CO)[C@@H](O)[C@H](O)[C@H]3O)C12` (some centres undefined), the Potency is reported as inconclusive: 10 µM [cytotoxic, single point].
